Source: the supplement of paper PMC11417369
The list shows a part of the results.

system: PfHDP1 homeodomain (GST-tagged); assay: gcPBM binding intensity (ln(normalized median fluorescence intensity)); higher = stronger DNA binding
Summary of the method: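 Probes on an Agilent 4 × 180k array were primer-extended, double-stranded and 36 bp long, taken from intergenic genomic regions, with negative controls added. GST-tagged P. falciparum DNA-binding domains from E. coli, about 25 μg on average, were applied to the array for 1 h in 1× PBS containing 1% milk, 0.2 mg/ml BSA, 0.5% salmon testes DNA and 0.03% Triton X-100. Binding intensity, obtained after Alexa488 anti-GST antibody detection and a 488 nm scan, is the highest Masliner-normalised natural-log median intensity across replicate spots of either probe orientation.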

Sequence | gcPBM binding intensity (ln)
ATATCATGTTAAGATTGTACATATATATAATATATA [XGTACX_site7626] | 6.47
AATAAATTGGTATGTTGTACAAAGTAACCATCGATT [XGTACX_site2823] | 6.68
TGCAATTTAATATGAGTGCATATATTGAGAAAATAC | 9.36
AAAGAAATTATTTGTTGTACATATGTTATTTTTTTT [XGTACX_site7570] | 6.39
AAGGATATAACATACACACACACACCCATATATATA [CACACA_site4142] | 7.01
TAAAACCTTTAAAATACATGCAGCATATATAAGTAA [TGCATGCA_site181] | 6.27
ATTCATAATTTATTATGTACATATATATAATATATT [XGTACX_site1711] | 6.26
AAATAACAAATTTTTAAAATGTATATATATATATAT [TGCATGCA_negctrl_site219] | 9.44
TATATATGGGTAACCTTTTTTTTTTTTTTTCGAACA [CACACA_negctrl_site1303] | 6.02
AAAAAAAATTTTAATTGTACAAAAAAAAAAAATATA [XGTACX_site2259] | 6.46
AAATAAATTGATTCAACACACACATATGTAGGAAGT [CACACA_site9068] | 6.86
AATTTTTTTTGTCTCTGTACTTATAAAATATATATG [XGTACX_site4742] | 6.43
TTTTTTTTTTTCAAGCGTACAAAAAATATATTTAAA [XGTACX_site5327] | 6.29
CACCCACACCAACACACACACATATATATATATATA [CACACA_site362] | 9.27
TAAATATATATATATAGTACAATATAATTATGATAT [XGTACX_site258] | 6.78
CTTATTTACTATTTTTCACACATTACAGATAAACAA [CACACA_site6095] | 6.78
TAAGTTTTGTTTTTTTGTACTCATTCATACTATCAT [XGTACX_site3638] | 6.91
TCATTGAAAAAAATCTGTACTGACTATATAGTTGCA [XGTACX_site1566] | 6.14
AAATGTACAGGACGCACACACATATTTATATTTATA [CACACA_site7689] | 6.7

Sequence | gcPBM binding intensity (ln)
TATATATATATAATTGCACACATCAAGTTTGATGTT [CACACA_site1288] | 9.99
TTTTTTTTTCCTTTTTTTTAAATATTAAAAATGGGA [TGCATGCA_negctrl_site494] | 5.8
TATAATATATGTATATGTACTTATGTTGAGAAACAT [XGTACX_site2117] | 6.24
GTTATATAAACATATGCATGTGAAGTGTTTATTAAT [TGCATGCA_site183] | 6.86
GAATAATATATATGTTCACACATGGTCTTTATTATA [CACACA_site5457] | 6.66
TACCTAATATGTTATACACACATTATGAGTACATAT [CACACA_site2466] | 6.81
AAAATACACGCATACACACACACACCGACACATATA [CACACA_site4523] | 7.45
TAATATTATATTTATAGTACATATAATATATATATA [XGTACX_site2964] | 8.23
TGTTGTGATATATTAAAATCGTCCCTTATAATTTTA [GTGCAC_negctrl_site595] | 6.52
TCTTGATACAAACATTTAAATAAATAAATAAAAAAA [GTGCAC_negctrl_site41] | 6.59
GAACACTAATAATGTTGTACACGTAATTATATATTT [XGTACX_site777] | 6.53
AAACACACACACAAATGTACATATATATATATATTT [XGTACX_site5090] | 6.94
ATATATTTTCATTTTACACACAAATAAAGATAATTT [CACACA_site2996] | 6.75
AAAATAAATAAAAAAAGTACATATATAATTTATAAA [XGTACX_site2411] | 6.66
TATATATATATAAGTAGTACAATAATATATTATTTT [XGTACX_site6450] | 8.86
TTTTACATCATATATAGTACATATATTATACATATA [XGTACX_site8590] | 6.58
TTTTCTTAATATTTCGTTTTACATAAACCTTTTAAA [CACACA_negctrl_site660] | 6.7
AATATAATATTATATAGTACATATTTCTTTTATTTT [XGTACX_site22] | 6.28
TCCATGCATTGACACACACACAAAAAAAAATTCTTT [CACACA_site7847] | 6.6

Sequence | gcPBM binding intensity (ln)
TTTATTTATTTATGGACACACATACAAATCTTCCAG [CACACA_site4676] | 6.38
CATACATATATACATACACACACATATAACCAATGT [CACACA_site8679] | 6.94
TTTGTATTACGTTTGTGTACATATACAATGTGTTTT [XGTACX_site7708] | 6.38
AATAATAATGCTTTAACTTTGTTGTTATTTAGAATA [CACACA_negctrl_site1144] | 5.92
TATAAATAAAAGTGTACACACATTAAAATCAAACGT [CACACA_site5316] | 7.19
AGATTTATTCATTCATGTACTTATTTATTTTATTTT [XGTACX_site6702] | 6.17
AATGTGCAAACAAACTGTACTTTTTTTTTTTTTTTT [XGTACX_site928] | 10.6
TATTTTTATTTTTAAACCATATATATATATATATAT [CACACA_negctrl_site1560] | 9.37
TATAATGATGATGATAGTACGTATGAGTAAGAAAAA [XGTACX_site31] | 7.12
ATAAAAATATTTATTACACACATAAGCAAAAAAAAA [CACACA_site3484] | 6.65
TATAGTTTCATTCTTTGTACATATATATTATTATTA [XGTACX_site8527] | 6.7
ATTATTAAGGTTTATTCAAAAAAGACGTTTTTAAAT [CACACA_negctrl_site1059] | 5.99
AGACACGTATACGATGCACACGTATGCTTTATATAT [CACACA_site9363] | 8.32
TATGAGAAAAAAAGTACATGCACAAAATGTATATGT [TGCATGCA_site789] | 8.07
ATTATATAAACCAAATGTACAAAAAGGTCGTAGTGG [XGTACX_site1298] | 7.09
CAACATTGTTCCTATTGTACATGAACTGTTCATACG [XGTACX_site4070] | 6.56
ATATGTACAAAATAAGCACACACAAAAAAAAAAAAA [CACACA_site8984] | 6.29
TTTTTTTTTTTTTTTTGTACATAAATTTTTATTAGA [XGTACX_site6409] | 6.16
